The numbers were not newly measured in PMC4065351, which cites them from elsewhere.

For series [1], the system named is Cys1 (position 1, -----CG----). The series is described as follows: UV-vis (inferred from 'similar procedures' for ref. 18). To be noted: free dipeptide, reduced thiol.
In series [2] the test system is Nterm (position 1, -----CG----). The description is as above. To be noted: free dipeptide, reduced thiol.

Some values that stand alone complete this part of the results.

Turning to “Cysteinylglycine (Cys-Gly) dipeptide (synthetic / not applicable)”, the pKa (usually the pH at which an ionisable group is half protonated) in series [1] (pKns, amino group deprotonated) is given as 9.48; in series [1] (pKs, amino group protonated) it was 7.87; in series [2] (pKn, thiol protonated), 7.14; in series [2] (pKsn, thiol deprotonated (thiolate)), 8.75.
